Results from patent publication US4705777A, “Cationic oligopeptides having microbicidal activity” (priority 1985, dated 1987).

Tests used:
[1] = system: Escherichia coli ATCC 29648; assay: Bactericidal activity of human neutrophil peptides, E. coli ATCC 29648; conditions: 50 μg/ml, 2 hour, 10 mM phosphate buffer pH 7.4 with 1% v/v trypticase soy broth
Protocol: (§1) The bactericidal activity of human neutrophil peptides was tested against Staphylococcus aureus 502A, Pseudomonas aeruginosa PA0579, and Escherichia coli ATCC 29648. The organisms were maintained or trypticase soy agar plates and organisms from a single colony were inoculated into 50 ml of trypticase soy broth (Difco, Detroit, Mich.) and cultured overnight at 37° C. One ml of this intermediate culture was diluted with 49 ml of fresh nutrient broth and incubated for an additional 18 h at 37° C. A portion of this stationary phase culture was washed with 10 mM phosphate buffer, pH 7.4, and the concentration of CFU/ml was quantitated by measuring its absorbance at 620 nm with reference to previously determined CFU/ optical density measurements. Incubation mixtures contained 1×10^5 bacterial CFU and 5 μg of HNP1-3 in 100 μl of 10 mM sodium phosphate buffer, pH 7.4. Control mixtures lacked HNP1-3 but contained a small amount of acetic acid (final concentration 0.08 mM), which was used as a vehicle for our HNP stock solutions. This basic incubation mixture was supplemented with various nutrients. Following incubation with HNP1-3 for 2 h at 37° C., timed samples were removed, serially diluted, spread on nutrient agar plates and incubated for 48-74 h to allow full colony development.
The basis incubation medium was 10 mM phosphate buffer, pH 7.4, supplemented with the indicated additions. […]

[2] = system: Staphylococcus aureus 502A; assay: Bactericidal activity of human neutrophil peptides, S. aureus; conditions: 50 μg/ml, 2 hour, 10 mM phosphate buffer pH 7.4 with 1% v/v trypticase soy broth
Protocol: as §1
The basic incubation medium was 10 mM phosphate buffer, pH 7.4, supplemented with the indicated additions. […]

Row | Substance | Decrease (log10 units) in Concentration of Test Organisms Relative to Input, E. coli ATCC 29648 [1] | Decrease (log10 units) in Concentration of Test Organisms Relative to Input, S. aureus 502A [2]
1 | cys tyr cts arg ile pro ala cys ile ala gly glu arg arg tyr gly thr cys ile tyr gln gly arg leu trp ala phe cys cys (CYCRIPACIAGERRYGTCIYQGRLWAFCC; ends and bridges not checked; cysteine pairing not given here; UniProt P59665 66-94, looked up) [HNP-2, human neutrophil peptide HNP-2 (intermediate mobility)] | 3.43 log10 units and 3.60 log10 units | 
2 | ala cys tyr cys arg ile pro ala cys ile ala gly glu arg arg tyr gly thr cys ile tyr gln gly arg leu trp ala phe cys cys [HNP-1] |  | 2.14 log10 units and 2.27 log10 units
3 | asp cys tyr cys arg ile pro ala cys ile ala gly glu arg arg tyr gly thr cys ile tyr gln gly arg leu trp ala phe cys cys [HNP-3] | 3.61 log10 units and 3.47 log10 units | 

“And” between values parts separate entries of the source, which are not always exact repeats. Equal values may be shown once. No end group written: not given here.
